# Results reported in PubChem BioAssay AID1347071 (National Center for Advancing Translational Sciences (NCATS), 2019).
# The whole screen tested about 410,000 compounds, of which about 260 (0.063%) were called active. Inconclusive means that the source gave no clear call. Such entries were picked first, then a sample of the others. Calls come from the whole dose curve; as a rule, active = well fitted activation curve with a large enough effect; inconclusive = small, poorly fitted or top-dose-only effect; inactive = no such curve, though single readings can be large or run the other way. No potency is given beside an inconclusive call; the fits are too rough.
# Test: qHTS for compounds that reverse cellular toxicity of Amyloid beta (A-beta) peptide in yeast: Primary Screen; note: nearly all actives have a fitted effect of over 55% in size
# Conditions: yeast expressing A-beta42, growth rescue, OD600, 48 h; growth rescue: at 46.1 µM (top of the series), 0% DMSO, 100% iron-clioquinol control
# Procedure, shortened: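 Growth rescue measured by 600 nm absorbance after 48 h yeast culture at 30 C with compound. Values normalized between DMSO and an equimolar ferric chloride plus clioquinol control.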
# Potency is the fitted concentration of half-maximal effect; tags give direction and shape of the fitted curve.
SMILES,Potency,growth rescue
CSCc1cc(N(C)c2ccccc2)nc(-c2ccccn2)n1,"inconclusive [activator, partial curve]",
O=C(Nc1nnc(-c2ccco2)o1)c1ccc2ccccc2c1,"inconclusive [activator, partial curve]",
Cc1ccc(C)c(NC(=S)N2CCC(C(=O)c3ccc(F)cc3)CC2)c1,"inconclusive [activator, single point]",
Cc1ccc(S(=O)(=O)N2CCN(c3nc4ccccc4nc3-n3nc(C)cc3C)CC2)cc1,"inconclusive [activator, full curve]",
CCN(C(=S)NCc1ccccc1)c1ccccc1,"inconclusive [activator, single point]",
Cc1ccc(C)c(OCCC(=O)OCC(=O)N2CCN(S(=O)(=O)c3ccc(Cl)cc3)CC2)c1,inactive,
CCOC(=O)CSC1=C(C#N)C(c2ccc(C)s2)CC(=O)N1 (centres undefined),"inconclusive [activator, single point]",
O=C(Nc1ccc(N2CCOCC2)nc1N1CCOCC1)c1cccc(C(F)(F)F)c1,"inconclusive [activator, partial curve, poor fit]",
CSc1ccc(Cn2c(C)c(C(=O)NCc3cccc(C(F)(F)F)c3)sc2=O)cc1,"inconclusive [activator, partial curve, poor fit]",
CC(C)(C)c1ccccc1NC(=O)c1ccc(-n2cncn2)c([N+](=O)[O-])c1,"inconclusive [activator, partial curve, poor fit]",
CCN(Cc1ccc2c(c1)OCCO2)S(=O)(=O)c1ccc(NC(C)=O)cc1,"inconclusive [activator, single point]",
COc1ccc(Nc2sc(C(=O)c3ccccc3)c(N)c2C(=O)Nc2cc(C)ccc2C)c(OC)c1,"inconclusive [activator, full curve]",
O=C(COC(=O)C12CC3CC(CC(O)(C3)C1)C2)NC(=O)NCc1ccco1,"inconclusive [activator, single point]",
O=C(CNC(=S)N(Cc1ccccc1)Cc1ccccc1F)NCCc1ccccc1,"inconclusive [activator, partial curve]",
Cc1nc(N/N=C\c2ccc3c(c2)OCO3)sc1C,"inconclusive [activator, single point]",
S=C(/N=c1/sccn1Cc1ccccc1)NC1CC1,"inconclusive [activator, full curve, poor fit]",
Cn1c(=O)n(Cc2ccccc2Cl)c(=O)c2c1[nH]c(=S)n2C,"inconclusive [activator, full curve, poor fit]",
S=c1nc(Cc2ccccc2)[nH]c2ccccc12,"inconclusive [activator, partial curve, poor fit]",
CCOC(=O)[C@]12CCC=C1N(CCC1=CCCCC1)C(=O)[C@H](CC(=O)NCCc1ccccc1OC)C2,inactive,
Cc1cccc(C)c1OCc1n[nH]c(=S)n1-c1ccccc1,"inconclusive [activator, single point]",
CN(C)S(=O)(=O)N1CCC(C(=O)O)(c2ccccc2)CC1,"inconclusive [activator, partial curve]",
COc1ccc(NC(=O)CCNS(=O)(=O)c2cccc3nsnc23)c(OC)c1,"inconclusive [activator, partial curve]",
COc1ccc2c(c1)c1c(c(=O)n(-c3ccc(F)c(Cl)c3)c(=O)n1CC(N)=O)n2C,inactive,

SMILES,Potency,growth rescue
O=C(NCCc1ccccc1)C(NS(=O)(=O)c1cccc2nsnc12)c1ccccc1 (centres undefined),"inconclusive [activator, single point]",
COc1ccc(CCNC(=O)c2sc3ccccc3c2Cl)cc1OC,inactive,
c1ccc(NCc2nc3ccccc3n2CCOc2ccccc2)cc1,"inconclusive [activator, partial curve, poor fit]",
C/C=C/C(=O)OCC(=O)NC(=O)NC(C)C,"inconclusive [activator, single point]",
COC(=O)c1ccc2nc(-c3ccccc3)c(Cc3ccc(C)cc3)n2c1,inactive,
COc1ccc(OC)c(C(=O)CSc2nnc(-c3cccs3)n2C)c1,"inconclusive [activator, partial curve, poor fit]",
CC1CCCCN1S(=O)(=O)c1ccc(NC(=O)c2cccc(-n3cnnn3)c2)cc1 (centres undefined),"inconclusive [activator, full curve, poor fit]",
CC(C)NC(=S)N/N=C/c1cccs1,"inconclusive [activator, partial curve, poor fit]",
CCc1nc2c(OCc3ccc(Cl)cc3Cl)cccn2c1N(C)C(=O)C(C)C,"inconclusive [activator, single point]",
S=C(NCCc1ccccc1)NCc1cccs1,"inconclusive [activator, single point]",
CCC(=O)NC(c1ccc(C)cc1)c1ccc2cccnc2c1O (centres undefined),"inconclusive [activator, single point]",
CCOc1ccc(CNC(=O)C2CCN(c3nc4ccccc4nc3C(F)(F)F)CC2)cc1OC,inactive,
S=C(NCc1ccco1)NCc1ccco1,inactive,
COC(=O)c1cc(NC(=O)COC(=O)CCc2c[nH]c3ccccc23)cc(C(=O)OC)c1,inactive,
Cc1cc2nc(C(C)(C)C)c(Cc3cccc(F)c3)n2c(C)c1Br,"inconclusive [activator, single point]",
Cc1ccc(NC(=O)CCC(=O)N2Cc3ccccc3Oc3ncccc32)cc1Cl,inactive,
CC1C(=O)C(C)C(c2ccc(Cl)cc2)NC1c1ccc(Cl)cc1 (centres undefined),"inconclusive [activator, partial curve, poor fit]",
Cc1ccc2c(c1)N(C(=O)N1CCC(C(=O)NCCc3ccccc3)CC1)CC(C)O2 (centres undefined),"inconclusive [activator, single point]",
Cc1ccc(-c2csc3ncnc(-n4nnc5ccccc54)c23)cc1C,inactive,
COc1cc(NC(=O)Cc2ccccc2)cc(OC)c1,"inconclusive [activator, partial curve]",
NNc1nc(-c2ccccc2)c2ccccc2n1,inactive,
Cc1ccc(Cl)cc1NC(=O)CCc1c(C)nc2c3cccnc3nn2c1C,inactive,
Fc1ccc(NC(=S)NCc2ccccc2)cc1,"inconclusive [activator, single point]",

SMILES,Potency,growth rescue
OC(C#CCN1CCCC1)(c1ccccc1)c1cccc(F)c1 (centres undefined),inactive,
COc1ccccc1CNC(=S)Nc1cc(C)ccc1C,"inconclusive [activator, partial curve, poor fit]",
Cc1cc(C)c2c(c1)cc(C)c1nnc(SCC(=O)N3CCCc4ccccc43)n12,"inconclusive [activator, full curve]",
CCN(C(=O)Cn1c(=O)n(Cc2ccccc2)c(=O)c2c1c1cc(OC)ccc1n2C)c1ccccc1,inactive,
S=C(Nc1ccc(Cl)cc1)Nc1ccc2cn[nH]c2c1,"inconclusive [activator, single point]",
CC(=O)NC(c1cccc([N+](=O)[O-])c1)c1ccc2cccnc2c1O (centres undefined),"inconclusive [activator, single point]",
CC(C)NC(=S)N1CCC(Cc2ccccc2)CC1,"inconclusive [activator, single point]",
COc1ccccc1/C=C\C=N\n1c(C2CCCCC2)n[nH]c1=S,"inconclusive [activator, single point]",
CC1CCN(C(=S)c2ccc(N(C)C)cc2)CC1,active: 12.6 µM,
CN(C)/C=N/C(=S)Nc1cc(Cl)cc(Cl)c1,"inconclusive [activator, partial curve, poor fit]",
O=C(Nc1ccc([N+](=O)[O-])cc1)C1(c2ccccc2)CCOCC1,"inconclusive [activator, partial curve, poor fit]",
CC(C)CCn1cnc2c1c(=O)[nH]c(=O)n2Cc1ccccc1,inactive,
Cc1nc2ccn(Cc3ccco3)c(=O)c2cc1C(=O)Nc1ccc(F)cc1,inactive,
CCC(C)NC(=O)CSc1nc2cc3c(cc2c(=O)n1Cc1ccco1)OCO3 (centres undefined),inactive,
CC(C)=CCCC(C)CN(C)CCc1ccccn1 (centres undefined),inactive,
Cc1cc(NC(=O)c2cc(-c3ccc(Br)cc3)on2)nn1Cc1ccc(Cl)cc1,inactive,
CC(=O)Nc1ccc(NC(=O)c2c(C)nn(Cc3ccccc3Cl)c2C)cc1,,inconclusive: 248% [activator]
Cc1ccc(C(=O)Nc2ccc(S(=O)(=O)N3CCc4ccccc43)cc2)o1,"inconclusive [activator, partial curve, poor fit]",
Cc1cccnc1NC(=S)NCc1ccco1,"inconclusive [activator, partial curve, poor fit]",
CCOC(=O)[C@H]1[C@H]2COc3ccc(Cl)cc3[C@@H]2N2C(=O)CN(Cc3ccc(C)cc3)C(=O)[C@@]12C,"inconclusive [activator, single point]",
C=CCN1C(=O)/C(=N/n2cnnc2)c2ccccc21,"inconclusive [activator, single point]",
COc1cccc(SCC2(O)CCN(C(=O)c3ccc(Cl)cc3)CC2)c1,"inconclusive [activator, partial curve]",
COC(=O)[C@]1(Cc2ccccc2)N[C@H](c2ccc(-c3ccccc3)cc2)[C@@H]2C(=O)N(C)C(=O)[C@@H]21,inactive,
